# Experimental data as given in PMC4336329 (PLoS ONE, 2015).
# The campaign covered roughly 310,000 compounds. About 14,000 (4.5%) showed an effect of 50% or more. The effect is printed as a negative number. Some of the results follow. Where a SMILES comes first, the peptide text is derived from it. The star is where a group is joined. Boc = CC(C)(C)OC(=O)*
# Molecular target: human ether-à-go-go-related gene (hERG) potassium channel (human, UniProt Q12809)
# Assay: primary screen, population patch clamp on CHO cells stably expressing hERG
# 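Note: peak tail current of the secondary pulse compared with the same well before compound.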
# Chain of human ether-à-go-go-related gene (hERG) potassium channel (Q12809 whole entry, looked up): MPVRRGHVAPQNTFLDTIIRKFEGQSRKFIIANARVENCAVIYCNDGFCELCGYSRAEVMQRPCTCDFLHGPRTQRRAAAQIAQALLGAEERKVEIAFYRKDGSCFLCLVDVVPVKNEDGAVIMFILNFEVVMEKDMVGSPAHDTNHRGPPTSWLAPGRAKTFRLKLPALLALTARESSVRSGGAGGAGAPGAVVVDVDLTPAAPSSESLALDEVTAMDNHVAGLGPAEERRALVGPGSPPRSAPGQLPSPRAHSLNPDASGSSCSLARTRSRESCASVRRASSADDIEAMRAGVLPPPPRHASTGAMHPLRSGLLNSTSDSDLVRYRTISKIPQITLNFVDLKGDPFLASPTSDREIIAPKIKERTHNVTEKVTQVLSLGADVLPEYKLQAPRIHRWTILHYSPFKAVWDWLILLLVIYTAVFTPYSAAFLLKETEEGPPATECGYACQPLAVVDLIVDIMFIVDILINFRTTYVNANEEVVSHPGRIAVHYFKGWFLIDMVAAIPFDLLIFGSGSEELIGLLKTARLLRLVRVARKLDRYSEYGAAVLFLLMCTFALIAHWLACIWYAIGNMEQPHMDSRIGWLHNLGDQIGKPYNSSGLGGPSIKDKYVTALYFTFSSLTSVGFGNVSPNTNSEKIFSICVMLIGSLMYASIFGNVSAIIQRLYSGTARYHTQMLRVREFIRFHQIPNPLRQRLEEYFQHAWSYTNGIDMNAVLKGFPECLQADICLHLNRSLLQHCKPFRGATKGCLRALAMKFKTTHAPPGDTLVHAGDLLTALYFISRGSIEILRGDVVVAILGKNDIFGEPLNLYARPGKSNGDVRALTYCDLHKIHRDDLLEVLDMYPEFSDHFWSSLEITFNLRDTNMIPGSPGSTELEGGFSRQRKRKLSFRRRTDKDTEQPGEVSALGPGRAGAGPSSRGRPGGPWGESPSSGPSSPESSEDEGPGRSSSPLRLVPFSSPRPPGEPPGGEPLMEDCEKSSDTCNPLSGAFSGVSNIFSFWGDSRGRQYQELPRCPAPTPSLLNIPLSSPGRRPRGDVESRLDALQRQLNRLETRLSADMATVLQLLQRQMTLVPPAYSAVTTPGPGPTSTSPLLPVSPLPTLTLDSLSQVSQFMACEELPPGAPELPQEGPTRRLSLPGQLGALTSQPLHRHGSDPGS
row,SMILES,"hERG current change (%, negative = inhibition) at 10uM [%]"
1,Cc1ccc(NC(=O)c2ccccn2)cc1S(=O)(=O)N1CCOCC1,-3.83
2,CC(=O)N(c1ccccc1)c1c(F)c(F)c(F)c(F)c1F,0.886
3,COc1ccc(/C=C2/N=C(SC3CCOC3=O)N(c3cccc(OC)c3)C2=O)cc1 (stereo not drawn),0.303
4,CCOc1ccc(NC(=S)Nc2cccnc2)cc1,7.16
5,CC(=O)c1cc(Cl)ccc1OCC(=O)Nc1cccc(S(=O)(=O)N2CCCC2)c1,18.6
6,CCOC(=O)C1(CC)NC(c2ccco2)C2C(=O)N(CC)C(=O)C21 (stereo not drawn),14.2
7,COc1ccc(CNC(=O)OCCN2CCN(S(=O)(=O)c3ccc(C)cc3)CCC2=O)cc1,-35.9
8,CC(=O)Nc1ccc(NC(=O)Cn2nc([N+](=O)[O-])c(Br)c2C)cc1,2.91
9,N#Cc1cnc(Nc2ccc(F)cc2)nc1N,-2.18
10,Cc1ccnc(N/N=C/c2ccccc2)n1,-0.0572
11,Oc1cc(Cc2ccccc2)cnc1CN1CCOCC1,-16.9
12,CN(Cc1ccccc1)c1ccc(N2C(=O)CCCC2=O)cc1[N+](=O)[O-],6.5
13,O=C(O)c1cc2c(N3CCC(Cc4ccccc4)CC3)ncnc2s1,14.8
14,CCCc1cc(=O)n(-c2nc3ccccc3s2)[nH]1,11.2
15,O=c1ccnc(Sc2ncccc2[N+](=O)[O-])[nH]1,-11
16,CCCN=Cc1c(CCC)[nH]n(-c2nc3ccccc3s2)c1=O,-66.9
17,COc1cc(-c2nc3cnccn3c2NC(C)(C)CC(C)(C)C)ccc1O,7.94
18,O=C(NC(Nc1ncccn1)C(=O)c1ccccc1)c1ccccc1 (stereo not drawn),-36.1
19,CCOc1ccccc1NC(=O)Nc1ccsc1C(=O)OC,-62
20,COCCCN(CC(=O)Nc1ccc(N2CCOCC2)cc1)S(=O)(=O)c1ccccc1,9.28
21,COC(=O)c1cnc(Nc2cc(C)ccc2OC)c2ccccc12,18.1
22,O=C(c1cc2sccc2n1Cc1ccccc1)N1CCCc2ccccc21,1.8

row,SMILES,"hERG current change (%, negative = inhibition) at 10uM [%]"
1,O=S(=O)(Nc1ccccn1)c1ccc(-n2cccn2)cc1,21.3
2,Cc1cc(=O)[nH]c(SCc2nc3ccccc3c(=O)n2-c2ccccc2C)n1,24.9
3,CSCCC(NC(=O)c1ccccc1)C(=O)N1CCN(C(c2ccccc2)c2ccccc2)CC1 (stereo not drawn),4.36
4,O=C(N[C@@H](c1ccccc1)[C@@H]1C[C@H]1C(=O)O)OCc1ccccc1,15.1
5,CC(=O)NC1(C(F)(F)F)C(=O)Nc2c1c(=O)[nH]c(=O)n2-c1ccccc1 (stereo not drawn),11.1
6,CCOC(=O)[C@H]1[C@H]2COc3ccc(OC)cc3[C@H]2N2C(=O)CNC(=O)[C@@]12C,1.75
7,CCn1c(CSCc2ccc(Cl)cc2)nnc1SCC(=O)Nc1cccc(C(=O)O)c1,-10.2
8,N=C(N=C(N)N)N1CCc2ccccc21,17.4
9,O=C(O)c1nccnc1C(=O)Nc1ccc(S(=O)(=O)N2CCOCC2)cc1,10.7
10,C=CCn1c(C)c(C(C)=O)cc(NC(=O)c2ccccc2)c1=O,-11
11,O=C(Nc1ccc(C(=O)NCc2ccc(F)cc2)cc1)C1=CSCCO1,4.17
12,Cc1cccc(C(=O)N2CCc3cc(-c4nc(NC(=O)Cn5nnc6ccccc6c5=O)sc4C)ccc32)c1,10.3
13,CCc1nnc(N/N=C/c2cccs2)n1N.Cl,3.35
14,CC1=NN(C(N)=S)C(=O)C1N=Nc1cccc(Cl)c1 (stereo not drawn),17.2
15,O=C(NC(=S)NC(CO)c1ccccc1)c1ccc(F)cc1 (stereo not drawn),0.0916
16,Cc1ccc(S(=O)(=O)N2CCCC2C(=O)OCc2ccccc2)cc1 (stereo not drawn),-12.8
17,Cc1cc(NC(=O)CSc2nnc3ccccn23)no1,-3.69
18,Cn1c(C(=O)N[C@@H](C(=O)O)c2ccccc2)cc2cc(F)ccc21,25.1
19,CCC(C)(C)n1nnnc1C(C(C)C)N1CCN(C)CC1.Cl (stereo not drawn),6.63
20,CCC(=O)c1ccc(OCC(=O)NCCc2ccccn2)cc1,11
21,N#Cc1cc(Cl)c(N2CCOCC2)cc1C#N,-9.59
22,Cc1ccc(N2CCN(C(=O)C3CCCN(c4ncnc5c4nc4n5CCCCC4)C3)CC2)c(C)c1 (stereo not drawn),-7.35

row,SMILES,"hERG current change (%, negative = inhibition) at 10uM [%]"
1,Cc1[nH]c2ccc(C(=O)N3CCN(c4ccccn4)CC3)cc2c1C,-2.92
2,Cc1ccc(NC(=S)N(CCN2CCCCC2)Cc2ccco2)cc1Cl,-51.1
3,O=C1CC(c2cccc([N+](=O)[O-])c2)c2c(ccc3ccccc23)N1 (stereo not drawn),10.3
4,O=C(Nc1ccc(Cl)cc1Cl)C1=Cc2ccccc2OC1,5.71
5,COc1ccc(CNC(=O)Nc2ccc(OC)cc2)cc1,10.9
6,COc1cc(C(=O)NCCCc2nc3ccccc3n2Cc2cc(C)ccc2C)cc(OC)c1OC,-33.6
7,CCCCn1c(=NC(=O)c2ccco2)c(C(=O)OCC)cc2c(=O)n3ccccc3nc21,-71.7
8,C=CCSC1=NC(=O)/C(=C/c2cccs2)S1,-16.5
9,Cc1ccc(OCCNS(=O)(=O)c2ccc(N3CCCC3=O)cc2)cc1C,0.366
10,CC(C)(C)OC(=O)NC(Cc1ccccc1)C(=O)N1CCCC1C(=O)O (stereo not drawn) (Boc-Phe-Pro-OH; configuration not given here),22.8
11,O=C(NCCc1nc(-c2ccccc2)cs1)c1ccc(Br)cc1,-7.36
12,O=C(CNC(=O)c1cccs1)N/N=C/c1ccccc1[N+](=O)[O-],-2.78
13,Cc1cc(C)cc(NCc2ccncc2)c1,-11.1
14,COc1ccc(CCNC(=O)[C@@H](NC(N)=O)C(C)C)cc1,27.1
15,CCN1C(=O)C(=Cc2cc(C)n(C3CC3)c2C)C(=O)N(CC)C1=S,7.68
16,COc1ccc(CNC(=O)COc2ccccc2C(=O)c2cnn(-c3ccccc3)c2)cc1OC,-41
17,CCc1ccc(NC(=O)Nc2cc(C(=O)NCC3CCCO3)ccc2N2CC3CC(C2)c2cccc(=O)n2C3)cc1 (stereo not drawn),-17.6
18,COc1ccc(C(=O)N2CCN(c3ccccn3)CC2)cc1,3.55
19,CCCNC(=O)c1noc2c1CCc1cc(OC)ccc1-2,-2.24
20,CCCCN(C(=O)c1cc2ccccc2o1)c1c(N)n(CCC)c(=O)[nH]c1=O,-5.27
21,Cc1cc(N2CCN(C(=O)c3ccco3)CC2)nc(-c2ccccc2)n1,-65.4
22,COc1cccc(C2=CC(c3cccc(OC)c3OC)n3nnnc3N2)c1 (stereo not drawn),-0.13

row,SMILES,"hERG current change (%, negative = inhibition) at 10uM [%]"
1,CC(CCc1ccccc1)NC(=O)c1nnc(Cc2ccc(F)cc2)o1 (stereo not drawn),-17.8
2,Nc1nnc(SCc2ccc(F)cc2)s1,-6.14
3,O=C(CN1CCN(CCO)CC1)Nc1ccc(Cl)cc1C(=O)c1ccccc1,-72.8
4,Cc1[nH]c2ccccc2c1C(=O)CN1C(=O)NC(C)(c2ccc(Cl)cc2Cl)C1=O (stereo not drawn),4.54
5,CN(C)S(=O)(=O)c1ccc2c(c1)C(=NO)c1cc(S(=O)(=O)N(C)C)ccc1-2,14.7
6,COc1ccccc1Oc1ccc(N/C=C2/CCCC2=O)cc1,-3.91
7,CCN1C(=O)CC(C(=O)Nc2ccc(F)cc2)SC1=Nc1ccc2c(c1)OCO2 (stereo not drawn),-13.5
8,Cc1ccc(-c2nc(CS(=O)CC(=O)NCCCN3CC(C)CC(C)C3)c(C)o2)cc1 (stereo not drawn),-19.9
9,CSc1nc(C)c2c(n1)N(c1ccc(C(C)C)cc1)CC2,15.3
10,CCOC(=O)CN1C(=O)C2(C(C#N)=C(N)Oc3ccccc32)C(C(=O)OC)=C1C (stereo not drawn),10.1
11,CSc1ncccc1C(=O)NCC12CC3CC(CC(C3)C1)C2,0.585
12,COCc1cccc(NC(=O)CCc2ccccc2)c1,18.1
13,Cc1cc(Cl)ccc1OCC(=O)NNC(=O)CCOc1ccccc1,-6.26
14,CCOc1nc(NCCc2ccc(OC)c(OC)c2)nc(NC(C)(C)CO)n1,1.6
15,CC(C)(C)N(Cc1ccccc1)C(=O)COC(=O)c1ccc([N+](=O)[O-])o1,8.38
16,O=C(Nc1ncccc1O)c1ccc(Oc2ccccc2)cc1,-1.73
17,COc1cccc(CNC(=O)c2ccc3nc[nH]c3c2)c1,16.2
18,COc1ccc(N2C(=O)N3[C@H](c4ccc(Cl)cc4)[C@@H]4C(=O)N(C5CCCCC5)C(=O)[C@@H]4[C@]3(C)C2=O)cc1,-1.17
19,Cc1ccc(C(=O)N2CCN(C3CCCCC3)CC2)s1,-36.7
20,Cc1ccc(C)c(NC(=S)/C(=C(\[O-])c2ccc(OC(F)F)cc2)[n+]2ccccc2)c1,21.1
21,O=[N+]([O-])c1ccc(Sc2cc[n+]([O-])c3ccccc23)c([N+](=O)[O-])c1,-65.3
